# About 2,200 (0.71%) of roughly 310,000 compounds showed an effect of 50% or more. Effects have a minus sign here. This is one part of the list.
# Molecular target: human ether-à-go-go-related gene (hERG) potassium channel (human, UniProt Q12809)
# Assay: primary screen, population patch clamp on CHO cells stably expressing hERG
# human ether-à-go-go-related gene (hERG) potassium channel, sequence (Q12809 whole entry, looked up): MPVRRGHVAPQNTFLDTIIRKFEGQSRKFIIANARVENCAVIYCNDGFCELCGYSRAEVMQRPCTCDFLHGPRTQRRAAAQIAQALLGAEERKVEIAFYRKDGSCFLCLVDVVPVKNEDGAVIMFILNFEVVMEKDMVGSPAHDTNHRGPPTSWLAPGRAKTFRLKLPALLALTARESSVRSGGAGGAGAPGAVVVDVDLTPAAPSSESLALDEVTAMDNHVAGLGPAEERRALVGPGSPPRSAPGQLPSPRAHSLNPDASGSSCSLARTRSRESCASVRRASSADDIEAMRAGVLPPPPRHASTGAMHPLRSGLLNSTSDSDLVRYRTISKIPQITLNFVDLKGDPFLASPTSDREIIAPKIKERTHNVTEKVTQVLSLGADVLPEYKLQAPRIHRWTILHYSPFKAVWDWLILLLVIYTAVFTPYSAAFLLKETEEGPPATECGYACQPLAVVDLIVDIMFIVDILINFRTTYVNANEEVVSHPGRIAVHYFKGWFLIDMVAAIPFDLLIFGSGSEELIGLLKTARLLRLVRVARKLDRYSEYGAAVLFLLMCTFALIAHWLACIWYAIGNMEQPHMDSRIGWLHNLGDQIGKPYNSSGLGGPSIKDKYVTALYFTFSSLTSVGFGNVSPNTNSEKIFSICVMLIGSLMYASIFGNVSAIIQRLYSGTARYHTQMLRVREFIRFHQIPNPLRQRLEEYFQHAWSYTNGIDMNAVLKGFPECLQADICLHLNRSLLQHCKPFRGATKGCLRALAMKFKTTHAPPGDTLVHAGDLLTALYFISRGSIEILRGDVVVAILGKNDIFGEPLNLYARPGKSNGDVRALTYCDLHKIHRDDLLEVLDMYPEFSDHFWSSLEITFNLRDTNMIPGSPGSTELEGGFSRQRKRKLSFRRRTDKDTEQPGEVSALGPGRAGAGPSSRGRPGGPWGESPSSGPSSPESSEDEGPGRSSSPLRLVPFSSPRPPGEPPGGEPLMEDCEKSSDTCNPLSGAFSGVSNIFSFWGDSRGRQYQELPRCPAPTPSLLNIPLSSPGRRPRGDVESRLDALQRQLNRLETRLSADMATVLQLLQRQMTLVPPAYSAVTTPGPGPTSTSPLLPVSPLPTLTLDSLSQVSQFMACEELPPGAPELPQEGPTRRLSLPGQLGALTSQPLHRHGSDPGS
row,SMILES,"hERG current change (%, negative = inhibition) at 1uM [%]"
1,COc1cc2c(cc1OC)CN(c1ccc(C(F)(F)F)cn1)CC2,14.8
2,CCN(C(=O)Cc1c(C(=O)O)n(C)c2ccccc12)c1cccc(C)c1,10.6
3,CC(=O)c1cc2c(cc1NS(=O)(=O)c1ccc(F)cc1)OCO2,20.7
4,COC(=O)c1ccc(N=Cc2c(-c3ccccc3)[nH][nH]c2=O)cc1,12.3
5,CCc1cc(=O)oc2c(C)c(OS(C)(=O)=O)ccc12,2.89
6,Cc1ccccc1C(=O)Nc1cccc(C(=O)N/N=C/c2ccccn2)c1,10.9
7,Cn1c(=O)[nH]c(=O)c2c1nc(N1CCCCC1)n2CC(O)COc1ccc([N+](=O)[O-])cc1 (stereo not drawn),-31.5
8,Cl.Nc1c(Br)cc(Br)cc1CNC1CCC(O)CC1 (stereo not drawn),-0.0639
9,Cc1ccccc1CN1CCN(c2nc3ccccc3s2)CC1,15.2
10,Cc1cc(-n2c(C)cc(C(=O)COc3ccccc3[N+](=O)[O-])c2C)no1,-2.3
11,CCCCn1c(CNC(=O)CC)nc2ccccc21,8.18
12,CCN(CC)S(=O)(=O)c1ccc(O)c(NC(=O)c2cc(-c3cc(OC)c(OC)c(OC)c3)nc3ccccc23)c1,-41.6
13,O=C(CSc1ccc([N+](=O)[O-])cn1)Nc1ccc(N2CCOCC2)c(Cl)c1,1.93
14,CCn1c(NCc2ccco2)nc2c1c(=O)n(C)c(=O)n2C,-9.03
15,C=CCn1c(N(C)C)nc2c1c(=O)[nH]c(=O)n2C,6.06
16,Cc1ccc(CNC(=O)c2ccc(N3CCC4(CC3)CC(c3cccc(Br)c3)=NO4)c(NC(=O)c3c(Cl)cccc3Cl)c2)cc1,13.6
17,O=C(c1ccccc1)N1CCN(S(=O)(=O)N2CCCCC2)CC1,5.62
18,C/C=C(\C)CN1CCN(c2ccc(C)cc2)CC1,7.31
19,CCOc1ccc(S(=O)(=O)N2CCC(C(=O)N3CCOCC3)CC2)cc1Cl,6.38
20,CC1CN(CCOc2ccccc2C(C)C)CC(C)O1.O=C(O)C(=O)O (stereo not drawn),16.5
21,CC(C)NS(=O)(=O)c1ccc(OCC(=O)Nc2ccccc2F)cc1,13.6
22,Cc1cc(NC(=O)/C=C/C(=O)N(c2ccccc2C)C(C(=O)NC2CCCC2)c2ccc(F)cc2)no1 (stereo not drawn),12.7
23,CCC(C)c1ccc(S(=O)(=O)N2CCN(CC(O)CN3CCOCC3)CC2)cc1 (stereo not drawn),-10
24,Cc1nnc(Nc2ccc(O)cc2)[nH]c1=O,19.5

# Source: paper PMC4336329 (PLoS ONE, 2015)
